PubChem BioAssay AID463173 (ICCB-Longwood Screening Facility, Harvard Medical School, 2010)
In all, about 52,000 compounds went through this assay and about 4,300 (8.3%) were called active. Cut-off read from the data, not from the text of the source: active = survival mostly below about 52% (no sharp cut-off); inactive = mostly above about 56%. Some of the results follow.

Each molecule was assayed on DeltatarO mutant (assay: S. aureus survival, RN4220 and DeltatarO strains – OD600, teichoic acid synthesis inhibitors, primary screen (AID 463173)). Settings: S. aureus RN4220 wild type/DeltatarO growth, OD600, 18 h, hits give low values, screened at 18.75 µg/mL (by protocol).
With `Cc1ccc(CCNC(=O)c2ccc3c(c2)nc2n3CCCCC2)cc1` the survival was inactive: 102%. For `COc1ccc(S(=O)(=O)Nc2ccc(-c3ccc(N4CCCC4)nn3)cc2)cc1F`, the survival was inactive: 88%. `Cc1sc2ncn(CC(=O)Nc3cccc(C(F)(F)F)c3)c(=O)c2c1S(=O)(=O)N1CCN(C)CC1` was tested, and the survival was inactive: 60%. `COc1ccccc1CNC(=O)CN(C)c1nn2c(=O)cc(C)nc2s1` was tested, and the survival was inactive: 101%. With `CCc1ccc(NC(=O)C2CCCN2S(=O)(=O)c2ccc3c(c2)n(C)c(=O)c(=O)n3C)cc1` (configuration not stated) the survival was inactive: 93%. With `Cn1c(CS(=O)(=O)c2ccc(Cl)cc2)c(C#N)c2ccccc21` the survival was inactive: 80%. With `COc1ccc2c(c1)cc1c(=O)n(CC(=O)NC(C)C)nc(C)n12` the survival was inactive: 78%. With `CC(=O)c1ccc(NC(=O)CSc2nnc3ccc(-c4ccc(Br)cc4)nn23)cc1` the survival was inactive: 66%. `COc1ccccc1NC(=O)CCC(=O)N1CC(C)Oc2ccc(C)cc21` (configuration not stated) was tested, and the survival was inactive: 58%. In the case of `COc1cc(CN2CCN(C(=O)c3cccc4ccccc34)CC2)cc(OC)c1OC`, the survival is reported as inactive: 72%. In the case of `CC1CCN(S(=O)(=O)c2ccc3c(c2)c(=O)c(C(=O)NCCc2ccccc2)cn3C)CC1`, the survival is reported as inactive: 101%. In the case of `COc1ccc(S(=O)(=O)NCCc2csc3nc(-c4cccc(C)c4)nn23)cc1F`, the survival is reported as inactive: 89%. `CCCCN1C(=O)c2[nH]nc(-c3ccccc3O)c2C1c1ccc(OCc2ccccc2)cc1` (configuration not stated) was tested, and the survival was active: 43%. With `COc1ccccc1NC(=O)CSc1nnc(NC(=O)Nc2ccc(C)cc2)s1` the survival was inactive: 58%. In the case of `CN(C)CCNC(=O)c1ccc2c(c1)NC(=O)C(CS(=O)(=O)Cc1cccc(Br)c1)N2` (configuration not stated), the survival is reported as inactive: 108%. In the case of `COc1ccccc1CNC(=O)c1c(O)nc2c(C)cccn2c1=O`, the survival is reported as inactive: 69%. For `CN(C(=O)CSc1nc(C2CCCC2)nc2c1c(=O)n(C)c(=O)n2C)c1ccccc1`, the survival was inactive: 94%. `Cc1cccc(C)c1OC(=O)CSc1nnc(CNC(=O)c2ccccc2)o1` was tested, and the survival was inactive: 92%. With `CC1CCN(C(=O)CSc2nnc(-c3ccccc3)o2)CC1` the survival was inactive: 75%. With `COc1ccc(NC(=O)Cn2c(=O)c3cc(Cl)ccc3n3nncc23)cc1` the survival was inactive: 126%. `CC(C)CCNS(=O)(=O)c1ccc(N2CCCCS2(=O)=O)cc1` was tested, and the survival was inactive: 82%. With `CCOc1ccc(C(=O)c2cn(CC(=O)Nc3ccc4c(c3)OCCO4)c3ccc(F)cc3c2=O)cc1` the survival was inactive: 91%. With `COc1ccccc1-c1noc(-c2ccc(NCc3ccco3)c([N+](=O)[O-])c2)n1` the survival was inactive: 97%. For `S=C1NNC2(CC3CC2C2CCCC32)NN1` (configuration not stated), the survival was inactive: 58%. For `Cc1ccc(S(=O)(=O)N2CCCC(NC(=O)NCc3ccco3)C2)cc1` (configuration not stated), the survival was inactive: 100%. For `O=C(Nc1cccc(C(F)(F)F)c1)c1cc(S(=O)(=O)N2CCCC2)c[nH]1`, the survival was inactive: 88%. `CC(=O)n1c(=O)oc2cc(Cl)ccc21` was tested, and the survival was inactive: 108%. With `COc1ccc(NC(=O)Cn2nnc(C(=O)NCc3ccc4c(c3)OCO4)c2N)cc1` the survival was inactive: 76%. For `Cc1cccc(N2CCN(C(=O)c3ccc4c(Cl)c5c(nc4c3)CCCC5)CC2C)c1` (configuration not stated), the survival was inactive: 76%. In the case of `COc1ccc(-n2nnc(-c3nsc(NC(=O)c4ccc(C)c(C)c4)n3)c2C)cc1Cl`, the survival is reported as inactive: 126%. `O=C(CSc1oc(-c2ccccc2)nc1S(=O)(=O)c1ccc(Cl)cc1)NC1CCCCC1` was tested, and the survival was inactive: 60%. With `CCCc1nnc(NC(=O)Cc2coc3ccc(C(C)C)cc23)s1` the survival was inactive: 69%. In the case of `COCCCNC(=O)CSc1nc2cc3c(cc2c(=O)n1CCCCCC(=O)NCc1ccc(OC)cc1)OCO3`, the survival is reported as active: 6%. For `CC(C)COC(=O)Cn1nnc2sc(-c3ccccc3)cc2c1=O`, the survival was inactive: 61%. In the case of `Cc1cc(C)c(NS(=O)(=O)c2cc(-c3onc(C)c3C)ccc2C)c(C)c1`, the survival is reported as inactive: 83%. In the case of `O=C(CN1CCCN(S(=O)(=O)c2ccc(Br)cc2)CC1)Nc1cccc(C(F)(F)F)c1`, the survival is reported as inactive: 69%. In the case of `CC1CCN(C(=O)c2ccc3c(c2)N(Cc2ccccc2)C(=O)c2ccccc2S3(=O)=O)CC1`, the survival is reported as inactive: 59%. For `Cc1ccc(NC(=O)c2cnc(SCC(=O)N3CCOCC3)n(C)c2=O)cc1C`, the survival was inactive: 101%. With `CN(C)c1ccc(N/C=C(\C#N)c2nc3ccccc3[nH]2)cc1` the survival was inactive: 76%. In the case of `CCOc1ccc(NC(=O)CCc2nc3cccnc3n2-c2ccccc2)cc1`, the survival is reported as inactive: 80%. With `COC(=O)c1cc2c(ccn2-c2ccc(F)cc2)n1CC(=O)c1ccc(OC)cc1` the survival was inactive: 64%. In the case of `CCN(Cc1ccccc1)Cc1c(O)ccc2c(=O)c(-c3ccc(Cl)cc3)coc12`, the survival is reported as inactive: 64%. With `O=C(NCc1ccccc1Cl)c1cnc(N2CCOCC2)c2ccccc12` the survival was inactive: 101%. For `Cc1ccc(-c2cc(-c3coc4ccc(Cl)cc4c3=O)c3c(n2)-c2ccccc2OC3)cc1`, the survival was inactive: 77%. With `N#CSc1ccc(N2CCCCC2)cc1` the survival was inactive: 69%. In the case of `Cc1ccc(C)c(N2CCN(C(=O)CCNS(=O)(=O)c3ccc4c(c3)CCN4C(=O)C3CC3)CC2)c1`, the survival is reported as inactive: 99%. With `O=C(C1CCC(Cn2c(=O)c3sccc3n(Cc3ccccc3)c2=O)CC1)N1CCCCC1` (configuration not stated) the survival was inactive: 78%. In the case of `CC(C)CN(CCCNC(=O)c1cc(=O)[nH]c2ccc(S(=O)(=O)N3CCCC3)cc12)CC(C)C`, the survival is reported as inactive: 107%. With `Cc1ccc(CNC(=O)CCCCCn2c(=O)c3sccc3n(CC(=O)Nc3ccc(C)c(F)c3)c2=O)cc1` the survival was inactive: 138%. `CCc1cnc2c(c1SCc1ccccc1C)c(=O)n(C)c(=O)n2C` was tested, and the survival was inactive: 65%. In the case of `O=c1[nH]c2ccccc2nc1/C=C(\O)c1ccccc1`, the survival is reported as inactive: 83%. For `CN1CCc2c(sc(NC(=O)CSc3ccc(F)cc3)c2-c2nc3ccccc3s2)C1`, the survival was inactive: 122%. `CCOC(=O)C1CCN(CN2C(=O)CCC2=O)CC1` was tested, and the survival was inactive: 94%. In the case of `CCN1C(C(=O)c2ccccc2)=C(OC(=O)COc2ccc(OC)cc2)c2ccccc2S1(=O)=O`, the survival is reported as inactive: 60%. For `COc1ccc2c(c1)c(CC(=O)Nc1ccc(C(C)=O)cc1)c(C)n2C(=O)c1ccc(Cl)cc1`, the survival was inactive: 70%. For `CCOC(=O)CSc1nnc(-c2ccc(S(=O)(=O)NCc3cccs3)cc2)o1`, the survival was inactive: 80%. `Cc1ccc(NC(=O)c2oc3ccccc3c2NC(=O)c2ccc(F)c(F)c2)cc1` was tested, and the survival was inactive: 89%. For `COc1ccc(S(=O)(=O)NCCS(=O)(=O)N2CCN(c3ccccc3)CC2)cc1OC`, the survival was inactive: 86%. `CCc1ccc(NC(=O)CSc2nc3c(oc4ccccc43)c(=O)n2-c2cccc(C)c2)cc1` was tested, and the survival was inactive: 76%. In the case of `O=C(Nc1nc2ccc(Cl)cc2s1)c1cc(=O)c2ccccc2o1`, the survival is reported as active: 32%. `CCc1cccc(CC)c1NC(=O)C(Cc1ccccc1)NS(=O)(=O)c1cccc2nsnc12` (configuration not stated) was tested, and the survival was inactive: 68%. `COc1ccccc1-n1c(=O)n(C)c2c(C(N)=O)nc(-c3cc(OC)c(OC)c(OC)c3)nc21` was tested, and the survival was inactive: 91%. `COc1cc2c(cc1NC(=O)C(C)Oc1ccccc1)oc1ccccc12` (configuration not stated) was tested, and the survival was active: -1%. For `O=C(NCc1ccc(Cl)cc1Cl)c1cccc(N2CCCS2(=O)=O)c1`, the survival was inactive: 46%. In the case of `CCn1cc2nc(SCc3cccc(C(F)(F)F)c3)n(Cc3ccc(C)cc3)c(=O)c2n1`, the survival is reported as inactive: 75%. `Cc1cc(F)ccc1NC(=O)c1c(C)oc2c1C1=NCCN1C=N2` was tested, and the survival was inactive: 102%. With `Cc1cc(Br)ccc1NC(=O)C1CC(O)CN1C(=O)OCc1ccccc1` (configuration not stated) the survival was inactive: 93%. `COc1ccc(-c2cc(C(=O)Nc3cnn(Cc4ccc(F)cc4)c3)no2)cc1OC` was tested, and the survival was inactive: 63%. For `CCC(C)c1ccc(OCC(=O)Nc2ccc(-c3nc4ncccc4o3)cc2)cc1` (configuration not stated), the survival was inactive: 44%. `CC(C)Oc1ccc(C(=O)N2CCCCC2CCN2CCCCC2)cc1` (configuration not stated) was tested, and the survival was inactive: 76%. With `CCOC(=O)c1ccc(NC(=O)N2C3CCC2CC(NC(=O)NC24CC5CC(CC(C5)C2)C4)C3)cc1` (configuration not stated) the survival was inactive: 93%. In the case of `CCOC(=O)c1sc(N2C(=O)c3oc4ccc(F)cc4c(=O)c3C2c2ccc(O)cc2)nc1C` (configuration not stated), the survival is reported as inactive: 75%. For `CCC1CN(C(=O)Nc2cc(Cl)ccc2C(=O)OC)c2ccccc2S1` (configuration not stated), the survival was inactive: 129%. `O=C1CCCS(=O)(=O)CC1` was tested, and the survival was inactive: 94%. `Cc1ccc(C)c(Cn2c(=O)n(CCCC(=O)NCc3ccc4c(c3)OCO4)c(=O)c3sccc32)c1` was tested, and the survival was inactive: 74%. In the case of `CN(C(=O)c1nn(C)c2c1CS(=O)(=O)c1ccccc1-2)c1cccc(Cl)c1`, the survival is reported as inactive: 64%. With `COc1ccc(-n2nc(C(=O)Nc3cccc(Cl)c3)c3c4ccccc4n(C)c3c2=O)cc1Cl` the survival was inactive: 108%. For `O=C(Nc1ccc(Br)cc1)c1cccc(S(=O)(=O)N2CCc3ccccc32)c1`, the survival was inactive: 134%. With `CC(C)(C)c1ccc(-c2nnc(-c3ccccc3NC(=O)c3ccc(F)cc3F)o2)cc1` the survival was inactive: 129%. `Cc1ccc(/C=C/c2onc(C)c2S(=O)(=O)N2CCC(C(=O)N(CCC(C)C)Cc3ccco3)CC2)cc1` was tested, and the survival was inactive: 68%. For `COc1ccc(N2CCN(CCCNC(=O)c3ccc4nc(N5CCCCC5)sc4c3)CC2)cc1`, the survival was inactive: 78%. `CCc1cccc(NC(=O)CCNS(=O)(=O)c2ccc3c(c2)CCN3C(C)=O)c1` was tested, and the survival was inactive: 85%. In the case of `COc1ccccc1NC(=O)Cn1c(=O)n(-c2ccc(C)cc2)c(=O)c2c1cnn2C`, the survival is reported as inactive: 83%. `CCOc1ccc(NC(=O)c2oc3ccccc3c2NC(=O)c2cc3ccccc3o2)cc1` was tested, and the survival was inactive: 102%. With `Cc1ccc(CNC(=O)c2ccc(CS(=O)(=O)c3ccccc3C)o2)cc1` the survival was inactive: 63%. For `Cc1ccc(N2C(=O)CSC23C(=O)N(CC(=O)Nc2ccccc2F)c2ccccc23)cc1C` (configuration not stated), the survival was inactive: 90%. In the case of `CN(C)c1ccc(CNC(=O)c2ccc3nc(CCc4ccccc4)oc3c2)cc1`, the survival is reported as inactive: 93%.
